{
  "source": "ChEMBL document CHEMBL4888484",
  "about": "“Replenishing the malaria drug discovery pipeline: Screening and hit evaluation of the MMV Hit Generation Library 1 (HGL1) against asexual blood stage Plasmodium falciparum ,using a nano luciferase reporter read-out” (2022)",
  "note": "In all, about 150,000 compounds went through this assay and about 540 (0.36%) showed an effect of 50% or more. This is one part of the list.",
  "data": [
    {"system": "Plasmodium falciparum", "assay": "Primary screen in NF54 nanoGlo assay, in single point, at 2uM, 72h; a lower Z score goes with more inhibition", "format": "functional, Erythrocyte", "details": "timepoint 72 hour", "units": {"% Inhibition": "%"}, "values": [
      {"smiles": "O=C1CS(=O)(=O)[C@@H](c2ccc(F)cc2)N1c1cccc(F)c1", "% Inhibition": -9, "Z score": 0.84},
      {"smiles": "O=c1[nH]ccn2nc(C(F)(F)F)cc12", "% Inhibition": -3, "Z score": 0.54},
      {"smiles": "Cc1ncc2ccc(C(=O)NC3CCN(C(=O)c4cc(Cl)c[nH]4)CC3)cn12", "% Inhibition": -37, "Z score": 4.29},
      {"smiles": "O=C(Nc1ccc(C(F)(F)F)cc1)C(=O)c1ccc[nH]1", "% Inhibition": -4, "Z score": 0.34},
      {"smiles": "Cn1ccnc1[C@H](NC(=O)c1cccc(S(=O)(=O)N2CCOCC2)c1)c1ccc(Cl)cc1", "% Inhibition": 3, "Z score": -0.47},
      {"smiles": "Cc1ccc(NC(=O)NC[C@H]2CCCN2CC(F)F)c(C)n1", "% Inhibition": -5, "Z score": 0.9},
      {"smiles": "CC(C)c1nnc(CNc2ccc(Cl)c(C(N)=O)c2)o1", "% Inhibition": 16, "Z score": -1.84},
      {"smiles": "CC1CCN(C(=O)NCc2ccoc2)CC1C", "note": "(stereo not drawn)", "% Inhibition": -14, "Z score": 2.61},
      {"smiles": "Cn1cc(C#N)cc1C(=O)N1CCCCCC1C1CCCCC1=O", "note": "(stereo not drawn)", "% Inhibition": -7, "Z score": 1.29},
      {"smiles": "COC(=O)N1CCC[C@H]1C(=O)NC1CCCCC1", "% Inhibition": 1, "Z score": -0.13},
      {"smiles": "CC(C)OC[C@@H](O)CN1CCn2c(cnc2C(F)(F)F)C1", "% Inhibition": -2, "Z score": 0.23},
      {"smiles": "COCCc1nnc(NC(=O)Cc2ccc(C)cc2C)o1", "% Inhibition": -9, "Z score": 1.07},
      {"smiles": "Fc1ccccc1Oc1cc(CNCc2ccsc2)ccn1", "% Inhibition": 17, "Z score": -2.75},
      {"smiles": "Cn1cc(CCC(=O)OCCNc2cccnn2)cn1", "% Inhibition": 2, "Z score": -0.17},
      {"smiles": "Cc1cc(CCNS(=O)(=O)Cc2ccccc2)nn1C", "% Inhibition": -1, "Z score": 0.24},
      {"smiles": "COCC(=O)N1CCC([C@@H]2N(C(=O)OC(C)(C)C)CC2(C)C)CC1", "% Inhibition": -6, "Z score": 1.16},
      {"smiles": "CCN(CC)CCNCc1ccccc1", "% Inhibition": -4, "Z score": 0.4},
      {"smiles": "COC[C@@H]1OC[C@@]2(C)C3CC[C@@H](O)[C@@H](CC(=O)NCc4ccc(F)cc4)[C@]3(C)CC[C@H]2O1", "note": "(stereo partly drawn)", "% Inhibition": 8, "Z score": -0.92},
      {"smiles": "Cc1ccc(O)c(C(=O)NC2CCOC(C3CC3)C2)c1", "note": "(stereo not drawn)", "% Inhibition": -2, "Z score": 0.26},
      {"smiles": "CNc1ccc(F)c(S(C)(=O)=O)c1", "% Inhibition": 2, "Z score": -0.21},
      {"smiles": "CCOC(=O)N1CCN(C(=O)c2cn3c(n2)CC[C@H](c2ccc(F)cc2)C3)CC1", "% Inhibition": -23, "Z score": 2.23},
      {"smiles": "O=C(CN(C(=O)c1ccc(F)cc1)C1CC1)Nc1nc(-c2ccccc2)cn1-c1ccc(C(F)(F)F)cc1", "% Inhibition": -9, "Z score": 1.4},
      {"smiles": "CCCC[C@H]1C(=O)N(C)CCN1C(=O)c1ccc(-c2cc(N)ccn2)cc1", "% Inhibition": 15, "Z score": -2.14},
      {"smiles": "COCCn1nnc2c1CCN(CC1CCC(C)O1)C2", "note": "(stereo not drawn)", "% Inhibition": 19, "Z score": -2.42},
      {"smiles": "CC(C)(CNS(=O)(=O)c1cccs1)c1ccsc1", "% Inhibition": -7, "Z score": 1.28},
      {"smiles": "Cc1cc(C)nc(NC2=NC(=O)CN2c2ccc(Cl)cc2Cl)n1", "% Inhibition": -4, "Z score": 0.53},
      {"smiles": "C/C=C(\\C)C(=O)N1CCC(N2CCC(C(=O)N3CCCC3)CC2)CC1", "% Inhibition": -12, "Z score": 1.74},
      {"smiles": "O=S(=O)(Nc1cccc(C#Cc2cccs2)c1)c1ccc(F)c(F)c1", "% Inhibition": -8, "Z score": 1.11},
      {"smiles": "NC(=O)C1CCC(C(=O)Nc2nc(C3CC3)cs2)CC1", "note": "(stereo not drawn)", "% Inhibition": -13, "Z score": 2.48},
      {"smiles": "O=C(NCc1ccco1)c1ccc(CN2CC(=O)N3CCCC[C@H]3C2=O)cc1", "% Inhibition": 3, "Z score": -0.54},
      {"smiles": "CC[C@@H](C(N)=O)N1Cc2cccc(F)c2C1", "% Inhibition": -10, "Z score": 0.92},
      {"smiles": "Cc1nc2sccn2c1CN[C@H]1CCCc2c1cnn2-c1ccc(C(C)(C)C)cc1", "% Inhibition": 4, "Z score": -0.52},
      {"smiles": "CCCc1ccc(S(=O)(=O)N2CCC[C@H]2c2nc(-c3cccc(C)c3)no2)cc1", "% Inhibition": -10, "Z score": 1.51},
      {"smiles": "COc1cccc(OC)c1C(=O)n1ccnc1", "% Inhibition": -7, "Z score": 1.05},
      {"smiles": "CNc1snc(C)c1C(=O)N1CCN(C(=O)[C@@H]2CCCO2)CC1", "% Inhibition": -13, "Z score": 1.17},
      {"smiles": "Cc1ccc(CNc2cc(C(=O)N3CCC[C@H](C(N)=O)C3)cc(S(=O)(=O)N(C)C)c2)s1", "% Inhibition": -7, "Z score": 0.82},
      {"smiles": "O=C1CCCc2ccc(NC(=O)N3CCCC3)cc21", "% Inhibition": -10, "Z score": 1.14},
      {"smiles": "COc1ccc(Cc2nc(-c3ccc4nnn(C(C)C)c4c3)no2)cc1", "% Inhibition": -7, "Z score": 1.12},
      {"smiles": "CCOC1CC1NC(=O)[C@@H](O)Cc1ccccc1", "note": "(stereo partly drawn)", "% Inhibition": 10, "Z score": -1.33},
      {"smiles": "COCCCCC(=O)N1CCC[C@H](N)[C@@H]1c1ccccc1OC", "% Inhibition": 4, "Z score": -0.43},
      {"smiles": "Cc1nc2ccc(NC(=O)c3ccc4ncsc4c3)cc2s1", "% Inhibition": -6, "Z score": 1.01},
      {"smiles": "Cc1cc(C(=O)N2CCO[C@H](c3cccnc3)C2)c(C)o1", "% Inhibition": -15, "Z score": 2.26},
      {"smiles": "Cc1cnc(C(=O)N2CCC[C@H](N(C)C(=O)CCc3nccs3)C2)cc1C", "% Inhibition": -4, "Z score": 0.84},
      {"smiles": "O=C(NC1CCC(CC2CCC(NC(=O)c3cnccn3)CC2)CC1)c1cnccn1", "note": "(stereo not drawn)", "% Inhibition": -2, "Z score": 0.31},
      {"smiles": "Cc1ccc(C)n1-c1ccc2c(c1)OCO2", "% Inhibition": -9, "Z score": 1.2},
      {"smiles": "O=C(NCc1nc(-c2ccco2)n[nH]1)c1ccc2ccccc2n1", "% Inhibition": -6, "Z score": 0.72},
      {"smiles": "CN(C)[C@@H](Cc1ccccc1)C(=O)N1CCC(C(=O)N2CCCCCC2)CC1", "% Inhibition": -11, "Z score": 1.43},
      {"smiles": "CC(C)C(CNC(=O)C1CNC(=O)C1)Cc1ccccc1", "note": "(stereo not drawn)", "% Inhibition": -6, "Z score": 0.65},
      {"smiles": "CCc1nc(CN2C(=O)C(=O)N([C@@H](C)c3ccccc3)C2=O)no1", "% Inhibition": -11, "Z score": 1.43},
      {"smiles": "CCOc1cccc(Cn2c(=O)c3sccc3n(CC(=O)N3CCCc4ccccc43)c2=O)c1", "% Inhibition": -6, "Z score": 0.9},
      {"smiles": "Cc1n[nH]c([C@@H]2CCN(C(=O)c3cccnc3)CCN2C(=O)Cc2ccccc2)n1", "% Inhibition": -5, "Z score": 0.66},
      {"smiles": "CC1=NS(=O)(=O)N(CCOc2ccccc2)C=C1c1nc(-c2ccccc2)no1", "% Inhibition": -1, "Z score": 0.15},
      {"smiles": "O=C(C[C@H]1CCCN1CC(=O)N1CCCCCCC1)c1ccc(F)cc1", "% Inhibition": -10, "Z score": 1.93},
      {"smiles": "Cc1nc(-c2ccnc(NC(=O)NCCCCO)c2)n[nH]1", "% Inhibition": -2, "Z score": 0.18}
    ]}
  ]
}
